The full ranking holds about 110,000 compounds; the median of “z-score” is about -0.1, and the highest 2% start at about 2. Some of the results follow. Activity calls are given as the source filed them.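 Rule for the calls: active = z-score in the third read window above 3 or below -3; inactive = the rest.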

The target of the assay is Metabotropic glutamate receptor 8 (Rattus norvegicus) (UniProt P70579). Kind of assay: mGluR8 Gi/Go-coupled signaling modulation – cell-based, rat, thallium flux, HTS, primary screen (AID 488969). As to conditions: HEK293 rat mGluR8, GIRK (G protein-gated inwardly rectifying potassium channel) thallium flux, FluoZin2; at 10 µM; stronger effect = higher value; submaximal glutamate (EC20) added with thallium.
UniProt P70579, sequence (P70579 whole entry, looked up): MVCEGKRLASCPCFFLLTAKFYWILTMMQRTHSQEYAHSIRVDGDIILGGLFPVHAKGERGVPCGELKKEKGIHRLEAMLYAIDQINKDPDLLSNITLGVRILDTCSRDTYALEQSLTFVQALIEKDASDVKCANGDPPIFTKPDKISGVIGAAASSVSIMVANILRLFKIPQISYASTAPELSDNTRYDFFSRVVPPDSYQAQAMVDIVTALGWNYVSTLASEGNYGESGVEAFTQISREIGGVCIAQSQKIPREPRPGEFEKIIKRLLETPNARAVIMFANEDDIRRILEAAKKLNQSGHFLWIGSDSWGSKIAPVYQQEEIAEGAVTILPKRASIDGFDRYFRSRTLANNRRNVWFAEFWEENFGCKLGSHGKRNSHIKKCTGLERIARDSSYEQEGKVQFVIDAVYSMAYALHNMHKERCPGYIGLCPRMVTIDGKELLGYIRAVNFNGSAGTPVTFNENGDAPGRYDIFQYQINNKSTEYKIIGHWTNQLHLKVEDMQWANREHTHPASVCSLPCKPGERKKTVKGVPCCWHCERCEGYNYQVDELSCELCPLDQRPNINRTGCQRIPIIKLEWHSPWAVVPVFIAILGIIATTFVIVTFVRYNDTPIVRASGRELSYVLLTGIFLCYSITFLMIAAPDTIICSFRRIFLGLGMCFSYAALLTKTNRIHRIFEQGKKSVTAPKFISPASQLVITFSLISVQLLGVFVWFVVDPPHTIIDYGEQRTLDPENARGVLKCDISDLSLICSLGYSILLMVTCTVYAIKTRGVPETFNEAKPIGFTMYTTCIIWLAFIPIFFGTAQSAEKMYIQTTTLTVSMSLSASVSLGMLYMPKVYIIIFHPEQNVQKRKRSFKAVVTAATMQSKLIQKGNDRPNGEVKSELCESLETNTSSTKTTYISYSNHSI
For the molecule `CCNC(=O)NC(=O)CSc1nc2ccccc2n1CC(C)C`, the z-score is -0.0199.

In turn, `CC(C)(C)C(=O)/C=C(\N)c1ccccn1` returned a z-score of 0.263.

With `CN(C(=O)c1cnc2n(c1=O)CCS2)C1CCCCC1`, the z-score is -0.376.

For `CN(C(=O)COC(=O)c1c[nH]c(=O)[nH]c1=O)C1CCCCC1`, the z-score is -0.125.

`O=Cc1ccc(OCC(=O)NC(=O)NC2CCCCC2)cc1` had a z-score of -0.481.

On to `COc1ccc(S(=O)(=O)N(c2onc(C)c2Cl)S(=O)(=O)c2ccc(OC)c(OC)c2)cc1OC`, for which the z-score was -0.165.

`Cc1ccc(NS(=O)(=O)c2ccccc2Cl)c2c1CC(C)(C)O2` returned a z-score of 0.142.

In turn, `CC(C)OC(=O)c1cccnc1SCC(=O)N(C)c1ccccc1` showed a z-score of -0.698.

In the case of `CCCCC(CC)CN1C(=O)/C(=C/c2ccncc2)SC1=S` (stereo unspecified), the z-score was -0.105.

Molecule `Cc1ccc(/C=N/N2CCN(Cc3ccccc3)CC2)o1` displayed a z-score of 0.121.

Take `Cc1nnc(-c2cccc(Br)c2)c2cn(-c3ccccc3Cl)nc12`: the z-score was -0.437.

The molecule `CCCOc1ccc(C(=O)Nc2ccc(C)cc2[N+](=O)[O-])cc1` returned a z-score of -0.35.

In turn, `O=C(Nc1nc(-c2ccc(F)c(F)c2)cs1)c1ccc(OCC2CCCO2)cc1` (stereo unspecified) returned a z-score of -0.359.

In turn, `O=C1/C(=C/c2ccccc2)Oc2cc(OC(=O)N3CCOCC3)ccc21` displayed a z-score of -0.159.

For `CCc1ccc(N=C2N=C(N)c3ccccc32)cc1`, the z-score is -0.165.

`O=C(NCc1cn2ccsc2n1)c1cccs1` came in with a z-score of -0.616.

As for `Cn1ccnc1-c1nc2ccccc2[nH]c1=O`, the z-score came to 0.000744.

`C=CCn1c(SCc2nc3ccccc3c(=O)[nH]2)nc2ccccc2c1=O` yielded a z-score of -0.561.

In turn, `c1ccc(-c2nn3nnnc3c3ccccc23)cc1` yielded a z-score of 0.134.

Turning to `CN1CCN(c2ccccc2NS(=O)(=O)c2ccc3c(c2)CCN3C(=O)C2CCC2)CC1`, the z-score worked out at 0.507.

Consider `CCC(CC)C(=O)c1c[nH]c(C(=O)NCc2ccco2)c1`, for which the z-score was 0.0881.

As to `CCC(C)NC(=O)Nc1ccc2c(c1)N(C)C(=O)c1ccccc1S2` (stereo unspecified), the z-score is -0.535.

The molecule `COC(=O)Cn1c(CCS(=O)(=O)c2ccc(Cl)cc2)nc2ccccc21` registered a z-score of -0.43.

Take `CCc1ccc(C(=O)N2CCN(c3ccc(F)cc3)CC2)s1`: the z-score was -0.883.

Consider `CCOC(=O)Cn1c(=O)oc2cc(S(=O)(=O)Nc3ccc(N(CC)CC)cc3C)ccc21`, for which the z-score turned out to be 2.74.

With `CCCn1c(C)cc(C(=O)COC(=O)c2c(C)nn(-c3ccccc3)c2C)c1C`, the z-score is 0.0826.

As to `Cc1nnc(SCc2nnc(-c3ccccc3Br)o2)n1-c1ccccc1`, the z-score was -0.102.

The molecule `Cc1ccc(-c2nc3s/c(=C\c4ccco4)c(=O)n3n2)cc1` showed a z-score of -0.145.

`COC(=O)c1ccccc1NC(=O)CSc1nc2c(c(=O)n(C)c(=O)n2C)n1C` registered a z-score of -0.00667.

In turn, `c1ccc(Cn2ncc3c(N4CCOCC4)ncnc32)cc1` gave a z-score of -0.095.

`CC1CCN(c2ncnc3c2cnn3Cc2ccc(Cl)cc2)CC1` returned a z-score of -0.0922.

`CCO/C=C1/C(=O)N(C(C)=O)c2ccccc21` showed a z-score of 0.333.

As for `Cc1cc(C(=O)OCC(=O)N2CCN(c3ccccc3)CC2)c2ccccc2n1`, the z-score was -1.52.

Turning to `Cc1ccc(N2C(=O)N(CC(=O)NCc3ccc(Cl)cc3)C(=O)C2C)cc1` (stereo unspecified), the z-score is -0.209.

With `Cc1ccc(NC(=O)CCC(=O)OC(C(=O)c2ccc(C)c(C)c2)c2ccccc2)c(C)c1` (stereo unspecified), the z-score was -0.288.

With `COc1cc(/C=C2\SC(=S)NC2=O)ccc1OS(=O)(=O)c1ccccc1`, the z-score was active: 15.1.

As to `Cc1cccc(C(=O)NCCc2ccc(S(N)(=O)=O)cc2)c1[N+](=O)[O-]`, the z-score stood at 0.144.

`CCc1ccc(NC(=O)CC2NCCNC2=O)cc1` (stereo unspecified) had a z-score of 0.239.

`O=c1cc(-c2ccccc2)nc2nc(SCc3ccccc3)[nH]n12` had a z-score of -0.33.

In turn, `COc1ccc(OCCSc2nnc(-c3ccoc3C)n2C)cc1` had a z-score of -0.174.

Turning to `CNC(=O)Nc1ccccc1NC(=O)NC`, the z-score turned out to be 0.0574.

`CCOC(=O)C1=C(C)NC2=C(C(=O)CC(C)(C)C2)C1c1coc2ccccc2c1=O` (stereo unspecified) showed a z-score of -0.105.

`CCCC(=O)Nc1nc(-c2ccc3c(c2)OCCO3)cs1` showed a z-score of 0.242.

With `COc1ccc(OC)c(NS(=O)(=O)c2ccc(N3CCCC3=O)cc2)c1`, the z-score was -0.156.

Turning to `COC(=O)c1nc(NC(C)=O)n[nH]1`, the z-score was active: -5.48.

For the molecule `CCOC(=O)C1=C(C)NC(=O)NC1c1ccc(OC(C)C(=O)O)c(OC)c1` (stereo unspecified), the z-score was 0.0131.

On to `COc1cc2c(cc1OC)C(=O)CCS2`, for which the z-score is -0.155.

In turn, `Cc1cccc(-n2[nH]c(C)c(C=Nc3ccc4[nH]c(=O)[nH]c4c3)c2=O)c1` returned a z-score of -0.176.

Regarding `O=C(Nc1cc(Cl)ccc1O)c1cc2n(n1)C(C(F)(F)F)CC(c1ccc3c(c1)OCO3)N2` (stereo unspecified), the z-score was -0.147.

With `COC(=O)Nc1ccc(S(=O)(=O)N2CCCC(C(=O)NC3CCS(=O)(=O)C3)C2)cc1` (stereo unspecified), the z-score is -0.597.

Molecule `O=C(CNS(=O)(=O)c1cccc(Cl)c1)OCc1csc(-c2ccccc2)n1` had a z-score of -1.56.

`O=C(CSc1nnc(-c2ccccc2F)n1C1CCCCC1)N1CCCC1` yielded a z-score of -0.551.

Turning to `CCOc1ccc(Oc2ccc(C(F)(F)F)cc2N)cc1`, the z-score was -0.33.

As to `COc1ccc(Cc2c(C)nc(N)nc2Cl)cc1`, the z-score came out at 0.388.

Take `O=C(CSCCc1ccccn1)Nc1ccc(Br)cn1`: the z-score was -0.0969.

`Cc1ccc(-c2[nH]nc3c2C(c2ccoc2)C(C#N)=C(N)O3)cc1C` (stereo unspecified) registered a z-score of 0.829.

In turn, `O=C(CSc1nnc(-c2ccncc2)n1Cc1ccco1)N1c2ccccc2Sc2ccc(Cl)cc21` came in with a z-score of -0.362.

`O=C(O)CSc1nnc(-c2cccs2)n1-c1ccc(Cl)cc1` showed a z-score of 0.213.

With `CC1(C(=O)O)CCC(C(=O)Nc2ccccc2)C1(C)C` (stereo unspecified), the z-score stood at 0.178.

With `COc1ccc(-n2c(Cc3cccn3C)nnc2SCC(=O)Nc2ccc(Cl)cc2)cc1`, the z-score was -0.855.

The molecule `CN(C(=O)CSc1nnc(NC2CCCCC2)s1)C1CCS(=O)(=O)C1` (stereo unspecified) yielded a z-score of -0.217.

In the case of `Nc1nnc(SCC(=O)NCc2ccc3c(c2)OCO3)s1`, the z-score amounted to 0.141.

Molecule `O=C(CCn1cnc2ccccc2c1=O)Nc1ccc(Cl)c(Cl)c1` had a z-score of -0.166.

`O=C1C(Cl)=C(N2CCCCC2)C(=O)N1c1ccccc1Cl` gave a z-score of -2.27.

Turning to `CCOC(=O)c1ccc(COC(=O)CCc2nc(-c3ccccc3)c(-c3ccccc3)o2)cc1`, the z-score was -0.163.

In turn, `Cc1ccc(N2C(=O)c3ccc(N)cc3C2=O)cc1C` came in with a z-score of -0.197.

For `CC(=O)NC1=NN(C(C)=O)C(C)(c2cccs2)S1` (stereo unspecified), the z-score was -0.0691.

Consider `CC(C)(C)c1ccc(-c2nnc(SCC(=O)Nc3sc4c(c3C#N)CCCC4)o2)cc1`, for which the z-score was -0.0718.

In the case of `CC(C)Oc1ccc(N2CC(C(=O)Nc3ccccc3F)CC2=O)cc1` (stereo unspecified), the z-score was -0.0994.

Molecule `CCOc1ccc(N=C2C(=O)N(CN3CCOCC3)c3ccccc32)cc1` had a z-score of -0.696.

`Cc1nc(N2CCN(C)CC2)[nH]c(=O)c1Cc1cccc2ccccc12` gave a z-score of -0.192.

Values taken from PubChem BioAssay AID488969 (Vanderbilt High Throughput Screening Facility, 2010).
